Experimental findings from paper PMC6919601, “Identification of Plasmodium dipeptidyl aminopeptidase allosteric inhibitors by high throughput screening” (PLoS ONE, 2019) are described below.

Among all 110,000 compounds or so, about 230 (0.21%) showed an effect of 50% or more. The list shows a part of the results.
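Further: 30 min substrate incubation versus DMSO and 10 µM JCP410 controls.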

The target in the test is DPAP1 (Plasmodium falciparum, UniProt Q8IIJ9). The test is described as follows: primary screen, percent inhibition; read by cleavage of a fluorogenic dipeptide substrate; higher = more effect of the substance. Details: species or system P. falciparum D10 trophozoite lysates; single well.
DPAP1, sequence (Q8IIJ9 whole entry, looked up): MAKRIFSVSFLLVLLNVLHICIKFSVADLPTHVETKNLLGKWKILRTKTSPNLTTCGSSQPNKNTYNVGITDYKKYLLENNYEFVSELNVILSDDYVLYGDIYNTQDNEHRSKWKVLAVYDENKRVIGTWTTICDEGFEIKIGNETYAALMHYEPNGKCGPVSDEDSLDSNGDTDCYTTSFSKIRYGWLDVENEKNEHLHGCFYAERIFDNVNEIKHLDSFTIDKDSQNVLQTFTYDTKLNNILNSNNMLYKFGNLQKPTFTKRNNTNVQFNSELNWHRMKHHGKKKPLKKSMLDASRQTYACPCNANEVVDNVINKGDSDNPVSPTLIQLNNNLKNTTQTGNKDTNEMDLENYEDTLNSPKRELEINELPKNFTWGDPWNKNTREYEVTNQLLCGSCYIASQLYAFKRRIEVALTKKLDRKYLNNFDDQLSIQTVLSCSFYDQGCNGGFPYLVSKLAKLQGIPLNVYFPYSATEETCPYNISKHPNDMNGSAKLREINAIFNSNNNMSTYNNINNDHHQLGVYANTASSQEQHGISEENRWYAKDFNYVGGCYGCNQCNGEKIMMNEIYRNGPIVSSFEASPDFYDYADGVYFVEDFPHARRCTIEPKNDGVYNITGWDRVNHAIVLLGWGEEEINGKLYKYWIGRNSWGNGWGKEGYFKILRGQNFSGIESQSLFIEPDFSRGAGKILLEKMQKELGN
Regarding `O=C1CC(c2nc(-c3ccccc3)cs2)C2(CCCCC2)O1` (centres unmarked), the “% Inhibition @ 10 uM” value worked out at 4.08%. Turning to `CCc1ccc(NCc2nc(-c3ccccc3)no2)cc1`, the “% Inhibition @ 10 uM” value is recorded as 1.86%. In the case of `COc1ccc(N2Cc3cc(C)c(C)cc3C2)c(OC)c1` it was 3.29%; in that of `Cc1ccc(CCNC(=O)C2CCN(c3nn4c(=O)cc(C)nc4s3)CC2)cc1`, 4.55%; in that of `O=C(O)C(Cc1ccc(F)cc1)NS(=O)(=O)c1ccc2oc3ccccc3c2c1` (centres unmarked), 1.76%.

Take `CCCCNC(=O)c1cccc2c1C(=O)N(CCC)C2`: the “% Inhibition @ 10 uM” value was -4.14%. In the case of `O=C(NC1CCCCC1)c1ccccc1NC(=O)C1CC=CCC1C(=O)O` (centres unmarked) it was 2.48%; in that of `O=C(CS(=O)(=O)c1ccc(C(F)(F)F)cc1Cl)Nc1cccc(C(=O)O)c1`, -4.97%; in that of `COc1cc(OC)c(OC)cc1/C=C1\N=C(c2ccccc2Br)OC1=O`, -25.1%. Then `COc1ccc(NC(=O)c2nn(C)cc2Br)cc1`, with -4.43%. In the case of `COCCN1C(=O)C(O)=C(C(=O)c2ccc(OC)c(C)c2)C1c1cccs1` (centres unmarked) it was 9.94%; in that of `CC(C)(C)c1ccc(OCCSc2nc(-c3ccco3)nc3cc(=O)[nH]n23)cc1`, 2.82%. With `CC(C)c1ccc(-c2c(NC3CCCCC3C)c(=O)c2=O)cc1` (centres unmarked), the “% Inhibition @ 10 uM” value is on record as -5.3%.

Turning to `Cc1ccc(S(=O)(=O)C2(C(=O)N3CCC(Cc4ccccc4)CC3)CC2)cc1`, the “% Inhibition @ 10 uM” value is given as -1.92%. `CCOC(=O)N1CCN(C(=O)C2c3ccccc3C(=O)N3CCc4ccccc4C23)CC1` (centres unmarked): the “% Inhibition @ 10 uM” value is reported as -1.29%. Regarding `CC1CCCN(Cc2ccnc3ccccc23)C1` (centres unmarked), the “% Inhibition @ 10 uM” value is -5.31%. Then `N#CCNC(=O)C(CC1CCCCC1)C(=O)Nc1cccc(Oc2ccccc2)c1` (centres unmarked), with -5.21%; and `O=c1oc2ccccc2cc1-c1nc(-c2cccs2)cs1`, with -14.4%.

In the case of `CC(NC(=O)Cn1nc(Cc2cccnc2)c2ccccc2c1=O)c1ccc2c(c1)OCCO2` (centres unmarked), the “% Inhibition @ 10 uM” value came to 5.09%. Then `CC1=CC2=NC(=O)/C(=C\c3ccc(OCCOc4ccc(Cl)c(C)c4)cc3)C(=N)N2O1`, with 0.317%. Then `O=C(NCc1ccc2c(c1)OCO2)c1cc(-n2cnnc2)ccc1Cl`, with -2.41%; and `O=c1/c(=C\c2ccccc2C(F)(F)F)sc2nc3ccccc3n12`, with 1.84%; and `Cn1cccc1C1C(C#N)=C(N)OC2=C1C(=O)CCC2` (centres unmarked), with -1.98%.

Regarding `COc1ccc(S(=O)(=O)NC(C)C)cc1C(=O)NC1CCCCC1`, the “% Inhibition @ 10 uM” value is -2.82%. In the case of `N#CC1=C(N)OC2=C(C(=O)CCC2)C1c1ccc(OCc2ccccc2)cc1` (centres unmarked) it was 2.36%; in that of `O=C(CCc1nnc2ccc(N3CCOCC3)nn12)N1CCN(C(=O)c2ccco2)CC1`, -2.55%. In the case of `N#Cc1c(NC(=O)c2ccccc2C(=O)O)sc2c1CCCC2` it was -4.61%. In the case of `COc1cc(CNCc2c(C(=O)O)c(C)n(Cc3ccc(F)cc3)c2C)cc(OC)c1OC` it was 1.41%; in that of `Cc1nn(C)c(C)c1NC(=O)/C=C/c1ccco1`, 1.88%; in that of `O=C(NCc1ccc(F)cc1)C1CCC(=O)N1C1CCCCC1` (centres unmarked), -0.0542%. Turning to `Cn1cnc([N+](=O)[O-])c1C(=O)Nc1ccccc1`, the “% Inhibition @ 10 uM” value was -3.85%.

`CCN1C(=O)S/C(=C/c2cn(CC)c3ccccc23)C1=O`: the “% Inhibition @ 10 uM” value was -0.519%. Then `CCCn1c(SC/C=C(/C)Cl)nc2c1c(=O)[nH]c(=O)n2C`, with -0.13%; and `CCOc1ccc(-n2c(SCC(N)=O)nnc2-c2c[nH]c3ccccc23)cc1`, with 2.12%. Then `COc1c(Cl)cnn(-c2cccc(C)c2)c1=O`, with -9.3%. Then `FC(F)(F)c1cccc(-n2nnc(-c3ccccc3Cl)n2)c1`, with -9.21%. With `Cc1ccc2c(CNCCc3ccc(Cl)cc3)c(C(=O)O)n(C)c2c1`, the “% Inhibition @ 10 uM” value is -0.118%. In the case of `CCOC(=O)c1[nH]c(C)c(C(=O)N2CC3CC(C2)c2cccc(=O)n2C3)c1C` (centres unmarked) it was 4.88%; in that of `COc1ccccc1CNC(=O)C1CCCN1S(=O)(=O)c1cccc2cccnc12` (centres unmarked), 0.981%. On to `CCN(CC)CCNS(=O)(=O)c1c(C)c(C)cc2nsnc12`, for which the “% Inhibition @ 10 uM” value is -1.33%. As to `C=CCn1c(SC(C)C)nc2sc(C)c(C)c2c1=O`, the “% Inhibition @ 10 uM” value is given as 2.38%.

Turning to `Cc1ccc(S(=O)(=O)/N=C(/N=S(=O)(c2ccc(Br)cc2)c2ccc(Br)cc2)c2ccccc2)cc1`, the “% Inhibition @ 10 uM” value is on record as -5.33%. Then `CCCCCCn1c(CN2CCN(C(=O)c3ccco3)CC2)nc2c1c(=O)n(C)c(=O)n2C`, with -3.23%. In the case of `Cc1ccc2c(CNCc3ccc(C)o3)c(C(=O)O)n(Cc3ccc(F)cc3Cl)c2c1` it was -0.177%; in that of `CC(C)(CO)NCc1cccc(OCc2ccc(Cl)cc2)c1`, -9.7%; in that of `COC(=O)/C(C#N)=C/c1ccc[nH]1`, -3.78%. In the case of `CCc1ccccc1-c1ccc(C(=O)N[C@@H](CC(C)C)C(=O)NCC#N)cc1`, the “% Inhibition @ 10 uM” value is reported as -1.41%. Then `Cc1ccc(-n2ncc(C(=O)NCCc3ccsc3)c2C2CCNCC2)cc1C`, with -4.59%; and `Cn1c2c(c(=O)n(C)c1=O)CN(CCCN1CCCC1=O)CN2`, with -1.08%; and `CCc1nn(CCCC(=O)NCc2ccccc2Cl)c(=O)c2cc3occc3n12`, with 4.55%.

Regarding `Cc1ccc(S(=O)(=O)N2CCN(c3ccccc3)CC2)cc1`, the “% Inhibition @ 10 uM” value was determined as 0.827%. In the case of `CCOc1ccccc1OCCCN1CCCC1` it was -3.78%; in that of `CCNC(=O)N(CC)Cc1nc(-c2ccc(OC)cc2)no1`, 1.67%.

In the case of `COc1ccccc1C1=NN(C(=O)c2ccccc2)C(c2ccco2)C1` (centres unmarked), the “% Inhibition @ 10 uM” value is reported as -3.1%. In the case of `O=C(c1nnc(-c2ccc(CN3CCc4ccccc4C3)cc2)o1)N1CCN(c2ccccn2)CC1` it was 4.95%; in that of `CC(C)=NOC(=O)CCS(=O)(=O)c1nc(-c2ccc3c(c2)OCO3)cc(C(F)(F)F)n1`, 4.33%. For the molecule `CCOC(=O)c1c(/N=C/N(C)C)c2cc([N+](=O)[O-])cnc2n1C`, the “% Inhibition @ 10 uM” value is reported as -1.42%.

`COc1cc(OC)cc(C(=O)N2CCN(Cc3ccccc3Cl)CC2)c1`: the “% Inhibition @ 10 uM” value is listed as -5.23%.

For the molecule `c1ccc(C2=NC(c3ccccc3)c3c(ccc4ccccc34)N2)cc1` (centres unmarked), the “% Inhibition @ 10 uM” value was -4.01%. For the molecule `CC1CCc2c(sc3nc(-c4ccc(Cl)cc4)cn23)C1` (centres unmarked), the “% Inhibition @ 10 uM” value is on record as -4.17%.

Consider `Cc1nnc(O)c2c1nnn2Cc1ccc(F)cc1`, for which the “% Inhibition @ 10 uM” value is listed as -1.71%. Regarding `COc1cc(CNc2ccc3[nH]c(O)nc3c2)cc(Br)c1OCC(=O)NC(C)(C)C`, the “% Inhibition @ 10 uM” value came out at 1.64%.

Take `O=C1C=CC(=NOC(=O)c2ccccc2Br)C=C1`: the “% Inhibition @ 10 uM” value is listed as 18.5%. For `CCOc1ccc(C2CNC(=O)C2)cc1` (centres unmarked), the “% Inhibition @ 10 uM” value is recorded as 0.878%. In the case of `Cc1ccccc1OC(C)C(=O)Nc1ccc(Br)cc1` (centres unmarked) it was -4.02%; in that of `CCN(Cc1ccccc1)C(=O)Cn1ncc2c3ccccc3n(C)c2c1=O`, -0.23%; in that of `CC(C)CC(NC(=O)N(C)C1CCN(Cc2ccccc2)C1)C(=O)NCC#N` (centres unmarked), -9.15%. In the case of `C=CCn1c(SCC(=O)Nc2ccc(OC)cc2OC)nc2sc(C)cc2c1=O` it was -4.28%. Then `Cc1ccc2c(CNCC(C)c3ccccc3)c(C(=O)O)n(Cc3cccc(F)c3)c2c1` (centres unmarked), with -1.63%.

Turning to `COc1ccc(OC)c(C(=O)c2ccc(C(=O)N3CCCCCC3)cc2)c1`, the “% Inhibition @ 10 uM” value worked out at 2.23%. In the case of `Cc1cc(N)n(C(C)(C)C)n1` it was -1.03%; in that of `CC1=C(C(=O)N2CCN(C3CCCCC3)CC2)C2(CCCCC2)OC1=O`, -5.58%; in that of `ONc1nc(-c2ccccc2)cc(-c2ccc(F)cc2)n1`, -1.5%. In the case of `OC(COc1cccc2ccccc12)CN1CCN(CC(O)COc2cccc3ccccc23)CC1` (centres unmarked) it was 51.4%. Then `COc1ccc(S(=O)(=O)N2CCC(NC(=O)NC3CCC(C)CC3)CC2)cc1` (centres unmarked), with 3.88%; and `Cc1ccc(-c2nc(O)c3c4c(sc3n2)CCCC4)cc1`, with 3.69%; and `CCOc1ccc(C2CC3=NC(C)=C(C(=O)OC)C(c4ccc(C)o4)C3=C(O)C2)cc1OC` (centres unmarked), with -1.17%. With `CC1=C(C(=O)Nc2ccccc2C)C(c2ccc(O)cc2)C2=C(O)CC(C)(C)CC2=N1` (centres unmarked), the “% Inhibition @ 10 uM” value was -5.63%. In the case of `CC(C)CN1C(=O)c2ccc(C(=O)Nc3nccs3)cc2C1=O` it was 4.42%. Then `O=C(CC1COc2ccccc2O1)Nc1ccccc1` (centres unmarked), with 0.161%; and `CCOc1cc2c(cc1OCC)C(C(=O)O)C(c1ccc(OC)c(Br)c1)N(C)C2=O` (centres unmarked), with 5.12%. Take `COc1ccc(N2C(N)=C(C#N)C(c3ccc(F)cc3)C3=C2CC(C)(C)CC3=O)c(OC)c1` (centres unmarked): the “% Inhibition @ 10 uM” value was determined as 2.36%. With `O=C(O)CCN1C(=O)c2ccc(NC(=O)CCC3CCCCC3)cc2C1=O`, the “% Inhibition @ 10 uM” value is reported as 2.13%. In the case of `CSc1nc(O)c2c(n1)N=C1CCCC(O)=C1C2c1cccc(O)c1` (centres unmarked) it was 5.11%; in that of `COCCNC(=O)CCn1c(=O)c2cccn2c2cccnc21`, 1.22%; in that of `O=C1/C(=C\c2ccc(O)c(O)c2)SC(=S)N1Cc1ccccc1`, -6.88%. Turning to `Cc1cc(C)n(-c2nc3ccccc3nc2N2CCN(S(=O)(=O)c3ccc(Cl)s3)CC2)n1`, the “% Inhibition @ 10 uM” value is given as -0.0709%.

With `CCc1ccccc1NC(=O)C(C)N(c1ccccc1)S(C)(=O)=O` (centres unmarked), the “% Inhibition @ 10 uM” value amounted to 0.755%. Then `Cc1ccc(-c2nc(CS(=O)(=O)CC(=O)NCc3cccc(Cl)c3)c(C)o2)cc1`, with -1.89%. In the case of `Cc1nc(N)nc(-c2ccccc2O)n1` it was -10.1%; in that of `COc1ccc(N2CCN(C3CC(=O)N(c4cccc(C(F)(F)F)c4)C3=O)CC2)cc1` (centres unmarked), 3.91%; in that of `CCCC[C@@H](NC(=O)[C@@H](CCC)NC(=O)OCc1ccccc1)C(=O)C[N+](=O)[O-]`, -0.972%.

For `CC1CCc2c(sc(NC(=O)COc3ccc4c(c3)CCC4)c2C(N)=O)C1` (centres unmarked), the “% Inhibition @ 10 uM” value is on record as -1.95%.

Take `Cc1ccc(C(=O)Nc2ncc(Cc3cccc(Cl)c3)s2)cc1`: the “% Inhibition @ 10 uM” value was 17.4%. In the case of `CC(=O)Nc1ccc(NC(=O)CN(c2cccc(F)c2)S(C)(=O)=O)cc1` it was 8.06%.

Consider `CCCCN(C)c1ccc(NC(C)=O)cc1`, for which the “% Inhibition @ 10 uM” value is on record as 3.91%. In the case of `O=C(CN1CCCC1)N1c2ccccc2C=Cc2ccccc21`, the “% Inhibition @ 10 uM” value is given as -6.06%. With `CCN(CC)CCN(C)C1CCC(c2ccccc2)CC1` (centres unmarked), the “% Inhibition @ 10 uM” value was -2.4%.
